Where “and” joins values, the source holds several entries; their conditions need not be identical. Equal entries are not always repeated. This list was built around the results that the source calls inconclusive (neither active nor inactive); the mix of calls is not that of the screen. For some assays here: Where the call is inconclusive, the potency comes from a doubtful curve fit. Calls of active or inactive are those of the source. Unless noted, calls follow the shape of the dose curve; as a rule, active = well fitted curve in the direction sought with a large enough effect in the repeat runs; inconclusive = weak or mixed curves; inactive = no such curve, though single readings can be large; an effect the other way counts as inactive or inconclusive.
How the values were obtained:
[1] = qHTS assay for identifying genotoxic compounds that show differential cytotoxicity against isogenic chicken DT40 cell lines with known DNA damage response pathways - Rev3 mutant cell line (AID 743014); settings: chicken DT40 Rev3-/- viability, CellTiter-Glo, 40 h; activity, negative = cytotoxicity: at 68.4 µM (top of the series) unless noted; also: potency is read from the fitted curve at half-maximal effect; nearly all actives have a fitted effect of over 55% in size
[2] = qHTS assay to identify small molecule antagonists of the thyroid receptor (TR) signaling pathway - cell viability counter screen (AID 743064); settings: GH3.TRE-Luc viability, CellTiter-Fluor, 24 h; activity change, negative = cytotoxic: at 70.3 µM (top of the series) unless noted; also: potency is read from the fitted curve at half-maximal effect; nearly all actives have a fitted effect of over 50% in size
Procedure, shortened: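 CellTiter-Fluor readout, 30 min at 37 °C/5% CO2, following 23.5 h incubation of GH3.TRE-Luc cells with test compound and 1 nM T3 (final).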

[3] = biological target: Estrogen receptor (Homo sapiens) (UniProt P03372); assay: qHTS assay to identify small molecule antagonists of the estrogen receptor alpha (ER-alpha) signaling pathway (AID 743069; active = well fitted curve in the direction sought with a large enough effect in the signal ratio in the repeat runs, not every such curve was filed as active; inconclusive = weak or mixed curves, or effect the other way; inactive = no such curve, though single readings can be large or run the other way; the % refers to the signal ratio; also: % is scaled to controls: 0 for no effect and ±100 for the full control effect); settings: HEK293 ER-alpha-UAS-bla, beta-lactamase ratio, antagonist mode; activity, negative = inhibition: at 69.4 µM (top of the series) unless noted
Procedure, shortened: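 Screening used a UAS-driven beta-lactamase reporter integrated into HEK293 cells expressing ER-alpha, stimulated with 17beta-estradiol alongside test compounds over 18 hr at 37C; signal came from LiveBLAzer B/G FRET fluorescence.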

[4] = qHTS assay to identify aromatase inhibitors - cell viability counter screen (AID 743084); settings: MCF-7 aro ERE viability, CellTiter-Fluor, 24 h; activity change, negative = cytotoxicity: at 70.3 µM (top of the series) unless noted;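 also: cells stimulated with testosterone during compound exposure; potency is read from the fitted curve at half-maximal effect; nearly all actives have a fitted effect of over 55% in size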
[5] = biological target: Nuclear receptor subfamily 1 group I member 2 (Homo sapiens) (UniProt O75469); assay: Human pregnane X receptor (PXR) activation by small molecules, qHTS assay (AID 1346985); also: potency is read from the fitted curve at half-maximal effect; nearly all actives have a fitted effect of over 40% in size
Procedure, shortened: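 DPX-2 cells (HepG2 co-transfected with a PXR response element and a CYP3A4-promoter luciferase construct) were seeded at 2,000 per well, rested 5 hr at 37C, then exposed to DMSO-dissolved compounds for 24 hr. Activation was read as luciferase luminescence.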

[6] = qHTS assay for small molecule disruptors of the mitochondrial membrane potential (AID 720635); settings: HepG2 mitochondrial membrane potential, Mito-MPS dye ratio; ratio activity, negative = MMP loss: at 83.2 µM (top of the series) unless noted; also: potency is read from the fitted curve at half-maximal effect
Procedure, shortened: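 HepG2 cells (2,000/well) attached overnight at 37C, then took compound for 1 hr at 37C, 5% CO2. Mito-MPS dye was added for 30 min; fluorescence was read at 490/535 nm (monomers) and 540/590 nm (aggregates).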

[7] = biological target: Glucocorticoid receptor (Homo sapiens) (UniProt P04150); assay: qHTS assay to identify small molecule antagonists of the glucocorticoid receptor (GR) signaling pathway (AID 720692; active = well fitted inhibition curve with a large enough effect in the signal ratio in the repeat runs, not every such curve was filed as active; inconclusive = weak or mixed curves, or effect the other way; inactive = no such curve, though single readings can be large or run the other way; the % refers to the signal ratio; also: potency is read from the fitted curve at half-maximal effect); settings: GR-bla HeLa, beta-lactamase FRET ratio, dexamethasone-stimulated, 18 h; activity change, negative = inhibition: at 58.5 µM (top of the series) unless noted
Procedure, shortened: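 In a 1536-well cell format, compounds were added 4 h after seeding GR-bla HeLa cells, together with dexamethasone at 5 nM final; reporter activity was measured by FRET-substrate fluorescence following 18 h at 37 C.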

[8] = qHTS assay to identify small molecule antagonists of the glucocorticoid receptor (GR) signaling pathway - cell viability counter screen (AID 720693); settings: GR-bla HeLa viability, CellTiter-Glo luminescence, 18 h, with 5 nM dexamethasone present; viability change, negative = cytotoxic: at 58.5 µM (top of the series); also: potency is read from the fitted curve at half-maximal effect; nearly all actives have a fitted effect of over 55% in size
[9] = test system: thyroid hormone receptor (rat, GH3 cells); assay: qHTS assay to identify small molecule agonists of the thyroid receptor (TR) signaling pathway (AID 743066; calls by dose curve; also: potency is read from the fitted curve at half-maximal effect; as to activation: % is scaled to controls: 0 for no effect and ±100 for the full control effect); settings: GH3.TRE-Luc cells, TR agonist luciferase, 24 h; activation: at 83.9 µM (top of the series) unless noted
[10] = qHTS assay to identify small molecule antagonists of the estrogen receptor alpha (ER-alpha) signaling pathway - cell viability counter screen (AID 743074; calls by dose curve; also: nearly all actives have a fitted effect of over 45% in size; also: potency is read from the fitted curve at half-maximal effect; as to activity, negative = cytotoxicity: % is scaled to controls: 0 for no effect and ±100 for the full control effect)
[11] = biological target: Estrogen receptor (Homo sapiens) (UniProt P03372); assay: qHTS assay to identify small molecule agonists of the estrogen receptor alpha (ER-alpha) signaling pathway using the BG1 cell line (AID 743079); settings: BG1Luc4E2 cells, ERE-luciferase agonist, 22 h; activation: at 70.3 µM (top of the series) unless noted; also: nearly all actives have a fitted effect of over 20% in size; also: potency is read from the fitted curve at half-maximal effect
[12] = qHTS assay to identify small molecule antagonists of the estrogen receptor alpha (ER-alpha) signaling pathway using the BG1 cell line - cell viability counter screen (AID 743081); settings: BG1Luc4E2 viability, CellTiter-Fluor, 22 h; activity change, negative = cytotoxicity: at 70.3 µM (top of the series) unless noted;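 also: compound given together with 17beta-estradiol as the ER stimulus; potency is read from the fitted curve at half-maximal effect; nearly all actives have a fitted effect of over 45% in size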
[13] = biological target: Peroxisome proliferator-activated receptor gamma (Homo sapiens) (UniProt P37231); assay: qHTS assay to identify small molecule agonists of the peroxisome proliferator-activated receptor gamma (PPARg) signaling pathway (AID 743094; active = well fitted activation curve with a large enough effect in the signal ratio in the repeat runs, not every such curve was filed as active; inconclusive = weak or mixed curves, or effect the other way; inactive = no such curve, though single readings can be large or run the other way; the % refers to the signal ratio; also: potency is read from the fitted curve at half-maximal effect); settings: HEK293H PPARg-UAS-bla, beta-lactamase FRET ratio, 17 h; activation: at 57 µM (top of the series) unless noted
Procedure, shortened: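 Agonism was assessed in a beta-lactamase reporter system, HEK293H cells with a stably integrated UAS-bla construct under PPARg control; the 17 h treatment at 37C preceded a 1 h room-temperature FRET substrate read.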

[14] = qHTS assay for small molecule agonists of the p53 signaling pathway (AID 651631; calls by dose curve; also: potency is read from the fitted curve at half-maximal effect; nearly all actives have a fitted effect of over 15% in size); settings: HCT-116 p53RE-bla reporter, beta-lactamase FRET ratio, 16 h; activation: at 73.3 µM (top of the series) unless noted
Procedure, shortened: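 Beta-lactamase reporter activity under p53 response elements was quantified in HCT-116 cells by FRET fluorescence, following 16 h incubation with test compounds at 37 °C and 2 h substrate development at room temperature.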

[15] = biological target: Glucocorticoid receptor (Homo sapiens) (UniProt P04150); assay: qHTS assay to identify small molecule agonists of the glucocorticoid receptor (GR) signaling pathway (AID 720691; active = well fitted activation curve with a large enough effect in the signal ratio in the repeat runs, not every such curve was filed as active; inconclusive = weak or mixed curves, or effect the other way; inactive = no such curve, though single readings can be large or run the other way; the % refers to the signal ratio; also: % is scaled to controls: 0 for no effect and ±100 for the full control effect); settings: GR-bla HeLa, beta-lactamase reporter ratio, 18 h; activation: at 62.4 µM (top of the series) unless noted
Procedure, shortened: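 Compounds in DMSO, alongside positive controls, were added to GR-bla HeLa reporter cells and incubated 18 h at 37 C; GRE-driven beta-lactamase was detected by fluorescence after 2 h with FRET substrate at room temperature.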

[16] = qHTS assay for identifying genotoxic compounds that show differential cytotoxicity against isogenic chicken DT40 cell lines with known DNA damage response pathways - wild type cell line (AID 743012); settings: DT40 wild type chicken cells viability, CellTiter-Glo, 40 h; activity change, negative = cytotoxicity: at 68.4 µM (top of the series) unless noted; also: potency is read from the fitted curve at half-maximal effect; nearly all actives have a fitted effect of over 60% in size
Procedure, shortened: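 Viability of DNA repair-proficient chicken DT40 cells was assessed by CellTiter-Glo luminescence following 40 h compound exposure at 37 C/5% CO2.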

[17] = qHTS assay to identify small molecule antagonists of the androgen receptor (AR) signaling pathway - cell viability counter screen (AID 743033; also: potency is read from the fitted curve at half-maximal effect; nearly all actives have a fitted effect of over 45% in size); settings: AR-bla HEK293 viability, CellTiter-Glo luminescence, 16 h; activity change, negative = cytotoxicity: at 58.5 µM (top of the series) unless noted
[18] = qHTS assay to identify small molecule antagonists of the estrogen receptor alpha (ER-alpha) signaling pathway using the BG1 cell line (AID 743080; calls by dose curve;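 also: BG1 cells stimulated with 17beta-estradiol alongside compound; potency is read from the fitted curve at half-maximal effect; nearly all actives have a fitted effect of over 25% in size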); settings: BG1Luc4E2 ERE-luciferase antagonist mode, luminescence; activity change, negative = inhibition: at 70.3 µM (top of the series) unless noted
Procedure, shortened: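 After 5 days in phenol-red-free 10% charcoal-stripped FBS medium, BG1-Luc-4E2 cells were seeded, left 24 h at 37 C, co-treated with compounds and 17beta-estradiol for 21.5 h, then assayed for viability and luciferase.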
Tags tell the direction and shape of the fitted curve or compound fluorescence and quenching.

Chain of UniProt P03372 (P03372 whole entry, looked up): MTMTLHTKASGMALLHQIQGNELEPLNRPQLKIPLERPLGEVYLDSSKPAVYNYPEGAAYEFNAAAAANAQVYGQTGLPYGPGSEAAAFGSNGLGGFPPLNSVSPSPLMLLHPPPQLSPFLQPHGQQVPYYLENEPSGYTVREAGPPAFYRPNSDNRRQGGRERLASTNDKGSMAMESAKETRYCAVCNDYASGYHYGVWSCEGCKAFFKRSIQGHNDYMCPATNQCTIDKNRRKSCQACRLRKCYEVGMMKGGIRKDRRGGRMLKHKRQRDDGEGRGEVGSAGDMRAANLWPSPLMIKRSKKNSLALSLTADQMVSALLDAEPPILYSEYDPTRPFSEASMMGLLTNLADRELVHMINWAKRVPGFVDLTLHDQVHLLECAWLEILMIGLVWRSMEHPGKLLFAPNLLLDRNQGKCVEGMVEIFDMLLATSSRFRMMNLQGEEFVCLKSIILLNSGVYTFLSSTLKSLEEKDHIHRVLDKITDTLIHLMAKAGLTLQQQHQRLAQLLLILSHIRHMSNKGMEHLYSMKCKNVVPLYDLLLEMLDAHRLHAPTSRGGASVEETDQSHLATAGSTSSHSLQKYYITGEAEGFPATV
Chain of UniProt P04150 (P04150 whole entry, looked up): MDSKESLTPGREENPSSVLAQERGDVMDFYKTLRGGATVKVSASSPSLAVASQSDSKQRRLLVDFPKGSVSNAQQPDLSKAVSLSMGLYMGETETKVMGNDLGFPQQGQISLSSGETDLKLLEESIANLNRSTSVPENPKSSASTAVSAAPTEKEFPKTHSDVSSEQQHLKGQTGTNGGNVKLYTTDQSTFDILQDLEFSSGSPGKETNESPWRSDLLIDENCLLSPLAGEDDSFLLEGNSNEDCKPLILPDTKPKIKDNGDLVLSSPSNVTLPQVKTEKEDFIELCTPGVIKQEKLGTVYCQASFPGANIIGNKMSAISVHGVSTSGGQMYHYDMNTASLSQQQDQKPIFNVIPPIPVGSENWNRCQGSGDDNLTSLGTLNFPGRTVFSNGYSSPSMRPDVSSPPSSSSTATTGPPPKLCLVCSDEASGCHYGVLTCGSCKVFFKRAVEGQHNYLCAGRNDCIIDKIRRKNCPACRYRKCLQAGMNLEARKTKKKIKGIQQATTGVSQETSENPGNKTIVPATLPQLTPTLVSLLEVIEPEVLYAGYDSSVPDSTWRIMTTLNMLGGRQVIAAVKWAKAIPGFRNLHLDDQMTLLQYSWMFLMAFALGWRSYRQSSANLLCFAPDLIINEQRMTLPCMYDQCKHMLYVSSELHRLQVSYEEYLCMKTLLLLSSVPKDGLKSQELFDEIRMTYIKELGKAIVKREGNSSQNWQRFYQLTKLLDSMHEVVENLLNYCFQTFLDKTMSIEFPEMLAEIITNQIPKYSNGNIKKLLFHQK
Chain of UniProt P37231 (P37231 whole entry, looked up): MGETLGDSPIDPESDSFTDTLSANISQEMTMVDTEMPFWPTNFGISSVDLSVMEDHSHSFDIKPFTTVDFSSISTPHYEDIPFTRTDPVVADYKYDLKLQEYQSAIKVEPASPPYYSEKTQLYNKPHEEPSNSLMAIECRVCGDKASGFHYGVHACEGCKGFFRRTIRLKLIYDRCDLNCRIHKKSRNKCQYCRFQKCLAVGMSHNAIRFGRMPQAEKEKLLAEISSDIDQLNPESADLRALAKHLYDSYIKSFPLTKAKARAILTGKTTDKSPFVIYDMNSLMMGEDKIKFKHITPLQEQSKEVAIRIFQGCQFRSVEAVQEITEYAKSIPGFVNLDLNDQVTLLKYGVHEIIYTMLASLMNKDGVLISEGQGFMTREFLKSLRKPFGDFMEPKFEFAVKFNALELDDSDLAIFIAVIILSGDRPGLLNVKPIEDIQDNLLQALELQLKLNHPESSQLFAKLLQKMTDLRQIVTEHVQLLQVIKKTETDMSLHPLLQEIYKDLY

SMILES: CC1CC(OC(=O)C(O)c2ccccc2)CC(C)(C)C1 (stereo not given)
- Potency [1]: inconclusive: 9.44 µM [cytotoxic, full curve]
- Potency [2]: inconclusive: 23.7 µM [cytotoxic, partial curve]
- Potency [3]: inactive
- Potency [4]: inconclusive: 26.6 µM [cytotoxic, partial curve]
- Potency [5]: inconclusive: 17.8 µM [activator, partial curve, poor fit]

SMILES: CCN1\C(=C/C=C/C=C/c2sc3ccccc3[n+]2CC)Sc2ccccc21
- Potency [6]: active: 33.5 nM and active: 266 nM
- Potency [7]: inconclusive: 21.3 µM [cytotoxic, partial curve] and inconclusive: 13.4 µM [cytotoxic, partial curve]
- Potency [8]: active: 23.9 µM and active: 21.3 µM
- Potency [9]: inconclusive: 9.44 µM [inhibitor, partial curve, poor fit]
- activation [9]: inconclusive: -9.31% [phenotype inactive]
- Potency [10]: active: 67.4 nM and active: 1.69 µM
- Potency [11]: inconclusive: 750 nM [inhibitor, full curve] and inconclusive: 1.88 µM [inhibitor, full curve]
- Potency [12]: active: 11.9 µM and inconclusive: 9.44 µM [cytotoxic, full curve]
- Potency [5]: inconclusive: 1.41 µM [activator, full curve, poor fit]

SMILES: C#C[C@]1(O)CC[C@H]2[C@@H]3CCC4=CCCC[C@@H]4[C@H]3C(=C)C[C@@]21CC
- Potency [6]: active: 21.1 µM
- Potency [7]: inconclusive: 26.8 µM [cytotoxic, single point]
- Potency [8]: inconclusive: 26.8 µM [cytotoxic, single point]
- Potency [10]: inactive
- Potency [13]: inactive
- Potency [5]: inconclusive: 5.62 µM [activator, partial curve, poor fit]

SMILES: Cn1c(O)c(N=NC(N)=S)c2ccccc21
- Potency [14]: inconclusive: 29.8 µM [falling, single point]
- Potency [6]: active: 4.95 µM
- activation [15]: inconclusive: -1.87% [phenotype inactive]
- Potency [7]: inconclusive: 5.35 µM [inhibitor, full curve]
- Potency [16]: active: 5.31 µM
- Potency [17]: active: 2.68 µM
- Potency [2]: inconclusive: 33.5 µM [cytotoxic]
- activation [9]: inconclusive: -9.3% [phenotype inactive]
- activity, negative = inhibition [3]: inconclusive: 35.5%
- Potency [11]: inactive
- Potency [18]: inconclusive: 18.8 µM [rising, partial curve, poor fit]
- Potency [12]: inconclusive: 26.6 µM [cytotoxic, partial curve, poor fit]
- Potency [4]: inconclusive: 33.5 µM [cytotoxic, single point]
- Potency [13]: active: 21.3 µM
- Potency [5]: active: 14.1 µM
